The supplement of paper PMC8728848
This is one part of the list.

What was measured:
Assay in all cases: glycan array binding signal (z-score within array); higher = stronger binding
Conditions in all cases: glycan notation: IUPAC condensed, linker removed
[1] = target: Fuc(a1-2)Gal
Summary of the method: (§1)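 Negative Z-scores can be read as non-binding. The Z-score is calculated within each array and then averaged across arrays of one protein sequence at different concentrations or buffers and across linkers. Arrays, 3228 in all, were curated from the Consortium for Functional Glycomics database and kept only where the protein sequence was available.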

[2] = target: Fuc(a1-2)Gal(b1-3)GalNAc
Summary of the method: as §1

[3] = target: Fuc(a1-2)Gal(b1-3)GalNAc(a1-3)[Fuc(a1-2)]Gal(b1-4)Glc
Summary of the method: as §1

[4] = target: Fuc(a1-2)Gal(b1-3)GalNAc(a1-3)[Fuc(a1-2)]Gal(b1-4)GlcNAc
Summary of the method: as §1

[5] = target: Fuc(a1-2)Gal(b1-3)GalNAc(b1-3)Gal
Summary of the method: as §1

[6] = target: Fuc(a1-2)Gal(b1-3)GalNAc(b1-3)Gal(a1-4)Gal(b1-4)Glc
Summary of the method: as §1

[7] = target: Fuc(a1-2)Gal(b1-3)GalNAc(b1-4)[Neu5Ac(a2-3)]Gal(b1-4)Glc
Summary of the method: as §1

[8] = target: Fuc(a1-2)Gal(b1-3)GlcNAc
Summary of the method: as §1

[9] = target: Fuc(a1-2)Gal(b1-3)GlcNAc(b1-2)Man(a1-3)[Fuc(a1-2)Gal(b1-3)GlcNAc(b1-2)Man(a1-6)]Man(b1-4)GlcNAc(b1-4)GlcNAc
Summary of the method: as §1

[10] = target: Fuc(a1-2)Gal(b1-3)GlcNAc(b1-2)Man(a1-3)[Fuc(a1-2)Gal(b1-3)GlcNAc(b1-2)Man(a1-6)]Man(b1-4)GlcNAc(b1-4)[Fuc(a1-6)]GlcNAc
Summary of the method: as §1

[11] = target: Fuc(a1-2)Gal(b1-3)GlcNAc(b1-3)Gal(b1-4)Glc
Summary of the method: as §1

[12] = target: Fuc(a1-2)Gal(b1-3)GlcNAc(b1-3)GalNAc
Summary of the method: as §1

[13] = target: Fuc(a1-2)Gal(b1-3)GlcNAc(b1-3)[Fuc(a1-2)Gal(b1-3)GlcNAc(b1-6)]GalNAc
Summary of the method: as §1

[14] = target: Fuc(a1-2)Gal(b1-3)GlcNAc(b1-3)[Gal(b1-4)GlcNAc(b1-6)]Gal(b1-4)Glc
Summary of the method: as §1

[15] = target: Fuc(a1-2)Gal(b1-3)GlcNAc(b1-3)[Neu5Ac(a2-6)Gal(b1-4)GlcNAc(b1-6)]Gal(b1-4)Glc
Summary of the method: as §1

[16] = target: Fuc(a1-2)Gal(b1-3)GlcNAc6S
Summary of the method: as §1

[17] = target: Fuc(a1-2)Gal(b1-3)[Fuc(a1-4)]GlcNAc
Summary of the method: as §1

[18] = target: Fuc(a1-2)Gal(b1-3)[Fuc(a1-4)]GlcNAc(b1-2)Man(a1-3)[Fuc(a1-2)Gal(b1-3)[Fuc(a1-4)]GlcNAc(b1-2)Man(a1-3)]Man(b1-4)GlcNAc(b1-4)GlcNAc
Summary of the method: as §1

[19] = target: Fuc(a1-2)Gal(b1-3)[Fuc(a1-4)]GlcNAc(b1-2)Man(a1-3)[Fuc(a1-2)Gal(b1-3)[Fuc(a1-4)]GlcNAc(b1-2)Man(a1-6)]Man(b1-4)GlcNAc(b1-4)[Fuc(a1-6)]GlcNAc(b1-4)[Fuc(a1-6)]GlcNAc
Summary of the method: as §1

[20] = target: Fuc(a1-2)Gal(b1-3)[Fuc(a1-4)]GlcNAc(b1-3)[Fuc(a1-3)[Gal(b1-4)]GlcNAc(b1-6)]Gal(b1-4)Glc
Summary of the method: as §1

[21] = target: Fuc(a1-2)Gal(b1-3)[Fuc(a1-4)]GlcNAc(b1-3)[Gal(b1-4)GlcNAc(b1-6)]Gal(b1-4)Glc
Summary of the method: as §1

[22] = target: Fuc(a1-2)Gal(b1-4)Glc
Summary of the method: as §1

[23] = target: Fuc(a1-2)Gal(b1-4)Glc6S
Summary of the method: as §1

[24] = target: Fuc(a1-2)Gal(b1-4)GlcNAc
Summary of the method: as §1

[25] = target: Fuc(a1-2)Gal(b1-4)GlcNAc(b1-2)Man
Summary of the method: as §1

[26] = target: Fuc(a1-2)Gal(b1-4)GlcNAc(b1-2)Man(a1-3)[Fuc(a1-2)Gal(b1-4)GlcNAc(b1-2)Man(a1-6)]Man(b1-4)GlcNAc(b1-4)GlcNAc
Summary of the method: as §1

[27] = target: Fuc(a1-2)Gal(b1-4)GlcNAc(b1-2)Man(a1-3)[Fuc(a1-2)Gal(b1-4)GlcNAc(b1-2)Man(a1-6)]Man(b1-4)GlcNAc(b1-4)[Fuc(a1-6)]GlcNAc
Summary of the method: as §1

[28] = target: Fuc(a1-2)Gal(b1-4)GlcNAc(b1-2)[Fuc(a1-2)Gal(b1-4)GlcNAc(b1-4)]Man(a1-3)[Fuc(a1-2)Gal(b1-4)GlcNAc(b1-2)Man(a1-6)]Man(b1-4)GlcNAc(b1-4)GlcNAc
Summary of the method: as §1

[29] = target: Fuc(a1-2)Gal(b1-4)GlcNAc(b1-3)Gal(b1-4)GlcNAc
Summary of the method: as §1

[30] = target: Fuc(a1-2)Gal(b1-4)GlcNAc(b1-3)Gal(b1-4)GlcNAc(b1-2)Man(a1-3)[Fuc(a1-2)Gal(b1-4)GlcNAc(b1-3)Gal(b1-4)GlcNAc(b1-2)Man(a1-6)]Man(b1-4)GlcNAc(b1-4)GlcNAc
Summary of the method: as §1

[31] = target: Fuc(a1-2)Gal(b1-4)GlcNAc(b1-3)Gal(b1-4)GlcNAc(b1-3)Gal(b1-4)GlcNAc
Summary of the method: as §1

[32] = target: Fuc(a1-2)Gal(b1-4)GlcNAc(b1-3)GalNAc
Summary of the method: as §1

[33] = target: Fuc(a1-2)Gal(b1-4)GlcNAc(b1-3)[Fuc(a1-2)Gal(b1-4)GlcNAc(b1-6)]GalNAc
Summary of the method: as §1

[34] = target: Fuc(a1-2)Gal(b1-4)GlcNAc(b1-3)[Fuc(a1-3)[Gal(b1-4)]GlcNAc(b1-6)]Gal(b1-4)Glc
Summary of the method: as §1

[35] = target: Fuc(a1-2)Gal(b1-4)GlcNAc(b1-6)GalNAc
Summary of the method: as §1

[36] = target: Fuc(a1-2)Gal(b1-4)GlcNAc6S
Summary of the method: as §1

[37] = target: Fuc(a1-2)Gal(b1-4)[Fuc(a1-3)]GlcNAc
Summary of the method: as §1

[38] = target: Fuc(a1-2)Gal(b1-4)[Fuc(a1-3)]GlcNAc(b1-2)Man(a1-3)[Fuc(a1-2)Gal(b1-4)[Fuc(a1-3)]GlcNAc(b1-2)Man(a1-6)]Man(b1-4)GlcNAc(b1-4)[Fuc(a1-6)]GlcNAc
Summary of the method: as §1

[39] = target: Fuc(a1-2)Gal(b1-4)[Fuc(a1-3)]GlcNAc(b1-2)[Fuc(a1-2)Gal(b1-4)[Fuc(a1-3)]GlcNAc(b1-4)]Man(a1-3)[Fuc(a1-2)Gal(b1-4)[Fuc(a1-3)]GlcNAc(b1-2)Man(a1-6)]Man(b1-4)GlcNAc(b1-4)GlcNAc
Summary of the method: as §1

[40] = target: Fuc(a1-2)Gal(b1-4)[Fuc(a1-3)]GlcNAc(b1-3)Gal(b1-4)[Fuc(a1-3)]GlcNAc
Summary of the method: as §1

[41] = target: Fuc(a1-2)Gal(b1-4)[Fuc(a1-3)]GlcNAc(b1-3)Gal(b1-4)[Fuc(a1-3)]GlcNAc(b1-3)Gal(b1-4)[Fuc(a1-3)]GlcNAc
Summary of the method: as §1

[42] = target: Fuc(a1-2)Gal(b1-4)[Fuc(a1-3)]GlcNAc(b1-3)GalNAc
Summary of the method: as §1

[43] = target: Fuc(a1-2)Gal(b1-4)[Fuc(a1-3)]GlcNAc(b1-3)[Neu5Ac(a2-6)Gal(b1-4)GlcNAc(b1-6)]Gal(b1-4)Glc
Summary of the method: as §1

[44] = target: Fuc(a1-2)Gal3S(b1-4)GlcNAc
Summary of the method: as §1

[45] = target: Fuc(a1-2)Gal6S(b1-3)GlcNAc
Summary of the method: as §1

B1: PX9961C-bth-497-22-497 (Bacteroides thetaiotaomicron) (protein)
chain: DWLDLNTTSSVETGQAIVTLDDAQIALNGIYRLASGHSYYGDNYWYYGDCRAADVQARITKGDGKRVSPYYEYNVLASDNLNIVLPWNTVYKVIRQTNNLIQKIESGSIQSSDTKELNRIKSEALVMRGLSLFNLTRLFGMPYTNDKGASLGVPIETSPSDPTHKPSRSTVAQCYEQVVSDMSNALSGLRQETSNGYINYWAAQALLSRVYLNMGEYQKAYDAATDVIKNNGGRYQLYSYEEYPNVWGQDFQSESLFELYITLSEPSGGTGGEGAPMVYANEATVDWNNLILSEDFLNLLNEDPKDVRHCLTKESVIENNTGLPAAAMHEKVYLAKFPGKTGDDPKTNNICIIRLSEVYLNAAEAGLKKGTDIEEAQGYLNDIISRRTTDTSQQVSTETFTLDRILKERRKELVGEGEVFYDYLRNGLAIERKGSWHLETLKASNAQKIEATDLRIALPIPQSEIDANPNIQQNPR
[1]
  glycan array binding signal (z-score): -0.453
[2]
  glycan array binding signal (z-score): -0.104
[3]
  glycan array binding signal (z-score): -0.365
[4]
  glycan array binding signal (z-score): -0.6
[5]
  glycan array binding signal (z-score): -0.484
[6]
  glycan array binding signal (z-score): -0.381
[7]
  glycan array binding signal (z-score): -0.144
[8]
  glycan array binding signal (z-score): -0.242
[9]
  glycan array binding signal (z-score): 0.463
[10]
  glycan array binding signal (z-score): -0.338
[11]
  glycan array binding signal (z-score): -0.187
[12]
  glycan array binding signal (z-score): -0.626
[13]
  glycan array binding signal (z-score): 0.12
[14]
  glycan array binding signal (z-score): 0.471
[15]
  glycan array binding signal (z-score): 0.349
[16]
  glycan array binding signal (z-score): 0.54
[17]
  glycan array binding signal (z-score): -0.262
[18]
  glycan array binding signal (z-score): -0.188
[19]
  glycan array binding signal (z-score): -0.062
[20]
  glycan array binding signal (z-score): -0.014
[21]
  glycan array binding signal (z-score): -0.24
[22]
  glycan array binding signal (z-score): -0.121
[23]
  glycan array binding signal (z-score): 0.149
[24]
  glycan array binding signal (z-score): 0.122
[25]
  glycan array binding signal (z-score): -0.387
[26]
  glycan array binding signal (z-score): 0.822
[27]
  glycan array binding signal (z-score): 1.12
[28]
  glycan array binding signal (z-score): 0.653
[29]
  glycan array binding signal (z-score): -0.376
[30]
  glycan array binding signal (z-score): 0.339
[31]
  glycan array binding signal (z-score): 0.701
[32]
  glycan array binding signal (z-score): -0.507
[33]
  glycan array binding signal (z-score): -0.579
[34]
  glycan array binding signal (z-score): -0.336
[35]
  glycan array binding signal (z-score): 0.148
[36]
  glycan array binding signal (z-score): 0.326
[37]
  glycan array binding signal (z-score): -0.222
[38]
  glycan array binding signal (z-score): 1.06
[39]
  glycan array binding signal (z-score): 0.886
[40]
  glycan array binding signal (z-score): 0.719
[41]
  glycan array binding signal (z-score): -0.517
[42]
  glycan array binding signal (z-score): -0.049
[43]
  glycan array binding signal (z-score): -0.648
[44]
  glycan array binding signal (z-score): 0.274
[45]
  glycan array binding signal (z-score): -0.49
